# Assay results taken from the supplement of paper PMC10126150.
# Values marked as one replicate rest on one cluster of the flow cell; about a third of the high ones do not repeat.
# Tested on: ATP
# Assay: switch fluorescence ratio, 500 uM ATP over buffer (Cy3 cluster intensity, sum of 5 cycles each) (fold (ratio)); higher = stronger signal-on switching upon ATP binding; sequences stand for … in TCGTCGGCAGCGTCAGATGTGTATAAGAGACAGTTTTTTTTTTTTTTTTTTTTTTTTT…TC
# Settings: aptamer strand: ATP DNA aptamer (quencher-CACCTGGGGGAGTATTGCGGAGGAAGG + anchor), 100 nM annealed; ATP concentration: 500 uM; one replicate
# In short: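 Clusters with intensities outside 100-1000 RFU were excluded. The remaining Cy3-labelled switching-strand clusters on a modified Illumina MiSeq flow-cell had been annealed to 100 nM quencher-labelled ATP aptamer and imaged in selection buffer, then after 15 min with 500 uM ATP at 22 °C, for five cycles separated by NaOH stripping and re-annealing. The fluorescence ratio, averaged per switch-domain sequence, is each cluster's summed target-cycle Cy3 intensity over its summed buffer-cycle Cy3 intensity.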
# 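Also: ATP exposure 15 min at 22 °C before imaging.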
row,Sequence,switch fluorescence ratio
1,GGGAGAGCTT,1.01
2,GGGAGCAGGT,0.994
3,GGGAGCATTC,1.34
4,GGGAGCGATA,1.08
5,GGGAGGACAC,1.01
6,GGGAGGAGAG,1.03
7,GGGAGGCGTC,1.33
8,GGGAGGTCGT,1.01
9,GGGAGGTTAA,0.976
10,GGGAGTGACG,1
11,GGGATAAAC,1.06
12,GGGATACGAA,0.996
13,GGGATATGCT,1.01
14,GGGATCGACG,0.947
15,GGGATGCCGA,0.972
16,GGGATGTGAC,1.24
17,GGGATTCGGC,1.01
18,GGGATTGCCA,0.998
19,GGGCAAGCAA,1.29
20,GGGCAAGGCT,1.03
21,GGGCACGCAG,1.03
22,GGGCAGAAGA,0.98
23,GGGCAGATGC,0.955
24,GGGCAGTTTA,0.995
25,GGGCATCCAA,0.977

row,Sequence,switch fluorescence ratio
1,GGGCATGGAC,1.03
2,GGGCATTTTC,1.02
3,GGGCCAAGTT,0.948
4,GGGCCATACA,0.997
5,GGGCCATAGG,1.08
6,GGGCCCAAAC,0.977
7,GGGCCCCC,1.04
8,GGGCCCTATT,1.03
9,GGGCCGCCTT,1.04
10,GGGCGACCGT,0.999
11,GGGCGATTCA,0.995
12,GGGCGATTCG,1.06
13,GGGCGCTACC,0.988
14,GGGCGGGTG,1.07
15,GGGCGGTAAA,0.96
16,GGGCGTATTA,0.997
17,GGGCTAGGCG,1.01
18,GGGCTGATGT,1.01
19,GGGCTGCAGG,1.04
20,GGGCTGGCTT,0.987
21,GGGCTGTATT,0.993
22,GGGCTTCATG,1.07
23,GGGCTTCTAA,0.966
24,GGGCTTGACG,1.02
25,GGGCTTGTTG,0.988

row,Sequence,switch fluorescence ratio
1,GGGGAACTGA,1.01
2,GGGGAATAAT,1.01
3,GGGGAGTT,0.986
4,GGGGATAAAT,0.999
5,GGGGATAGCA,0.987
6,GGGGATCAAG,1.02
7,GGGGATGAAC,1.01
8,GGGGATGATC,1.01
9,GGGGCACGTA,1.03
10,GGGGCACTAC,2.45
11,GGGGCACTTA,1.02
12,GGGGCCCCCG,0.962
13,GGGGCCTGCA,0.967
14,GGGGCGAC,1.04
15,GGGGCGACTC,0.973
16,GGGGCTAGAC,0.829
17,GGGGCTATTG,1
18,GGGGCTCGCA,1.02
19,GGGGCTGCTC,0.976
20,GGGGCTGTGT,0.963
21,GGGGCTGTTA,0.941
22,GGGGCTTTCA,1.03
23,GGGGGACCTG,0.953
24,GGGGGCAGTC,1.02
25,GGGGGGCCC,0.969

row,Sequence,switch fluorescence ratio
1,GGGGGTCCAA,1.01
2,GGGGGTCTAC,1.01
3,GGGGGTCTAG,0.948
4,GGGGGTTTCA,1.05
5,GGGGTACG,1
6,GGGGTCAATT,1.01
7,GGGGTCCACC,0.968
8,GGGGTCCTTG,1.05
9,GGGGTGCGAC,1.01
10,GGGGTGGCGG,0.939
11,GGGGTTAAG,1.01
12,GGGGTTCTG,1
13,GGGTAAAATT,0.947
14,GGGTAAACAA,1.01
15,GGGTAACCCA,1.01
16,GGGTAAGAGC,1.06
17,GGGTACCAAC,1.03
18,GGGTACTCTT,0.967
19,GGGTAGTTTG,0.963
20,GGGTATAGC,0.993
21,GGGTATGCCT,1.01
22,GGGTATTCAT,0.991
23,GGGTATTTA,1.02
24,GGGTCAGCAC,0.985
25,GGGTCAGCTT,1.01

row,Sequence,switch fluorescence ratio
1,GGGTCCACGC,1.05
2,GGGTCCCGTG,1.08
3,GGGTCTAAAC,0.969
4,GGGTCTACAT,1.02
5,GGGTGACGAA,0.986
6,GGGTGAGTGC,0.913
7,GGGTGCCCTG,0.992
8,GGGTGCGCCC,0.98
9,GGGTGCTGTA,0.957
10,GGGTGTCGCG,1
11,GGGTGTGTAA,1.01
12,GGGTGTTATT,0.992
13,GGGTGTTCC,1
14,GGGTGTTTCA,1.03
15,GGGTTAACCA,0.983
16,GGGTTACATG,0.973
17,GGGTTACCGC,0.997
18,GGGTTATCGA,0.961
19,GGGTTCATAG,0.957
20,GGGTTCCAAC,1.02
21,GGGTTCGCTC,0.99
22,GGGTTCGGGC,0.989
23,GGGTTGCAAT,1.06
24,GGGTTGCATT,1.01
25,GGGTTGCTTC,0.953

row,Sequence,switch fluorescence ratio
1,GGGTTGTGGC,0.976
2,GGGTTTCCAA,0.983
3,GGGTTTGACA,0.972
4,GGGTTTGCTT,0.996
5,GGGTTTGTGC,1.03
6,GGTAAAACGT,1
7,GGTAACGTAC,1.88
8,GGTAAGGTTT,1.03
9,GGTAAGTAGT,1
10,GGTAAGTATT,1.02
11,GGTAATTACG,1.06
12,GGTACAAGGG,0.976
13,GGTACAATTT,1.02
14,GGTACAGAGA,1.05
15,GGTACAGTGG,1
16,GGTACCTAGC,1.02
17,GGTACGCGGG,0.975
18,GGTACGCTGT,1.05
19,GGTACGGTGC,1.08
20,GGTAGAGCAT,0.996
21,GGTAGAGGAC,1.06
22,GGTAGATAGC,0.969
23,GGTAGCCTTA,1.07
24,GGTAGCGGGC,0.956
25,GGTAGCTATC,1.08

row,Sequence,switch fluorescence ratio
1,GGTAGTTGGA,0.992
2,GGTATGAAGA,1.02
3,GGTATGGTCC,1.04
4,GGTATTAAAA,0.991
5,GGTATTCGTT,0.972
6,GGTATTGCCT,1.01
7,GGTCAACTGA,1.07
8,GGTCAAGGAA,0.99
9,GGTCACGTCC,0.969
10,GGTCCAGAGC,1.04
11,GGTCCAGTGG,1.04
12,GGTCCCACGA,0.967
13,GGTCCCAGTC,1.09
14,GGTCCCATGG,1.04
15,GGTCCCGCTA,1.06
16,GGTCCGGATT,1.02
17,GGTCCGTAGA,0.992
18,GGTCCGTG,0.943
19,GGTCCTAGGC,1.06
20,GGTCGACCAC,1
21,GGTCGAGCTC,0.969
22,GGTCGATCCG,0.95
23,GGTCGCTATC,1.04
24,GGTCGCTCAC,0.995
25,GGTCGCTGGG,0.973

row,Sequence,switch fluorescence ratio
1,GGTCGTAGGT,0.979
2,GGTCGTCACA,0.971
3,GGTCGTGTCA,0.984
4,GGTCGTGTCT,0.999
5,GGTCTAGAAG,0.964
6,GGTCTAGATG,1.02
7,GGTCTCTACT,1
8,GGTCTCTTCA,1.04
9,GGTCTGGATG,0.97
10,GGTGAAACGA,1.02
11,GGTGAAAGGT,0.974
12,GGTGAAGAGA,0.973
13,GGTGACCGCA,1.07
14,GGTGACGTAG,1.02
15,GGTGACGTGA,1.03
16,GGTGAGGACA,1.02
17,GGTGCAAAAT,0.949
18,GGTGCCACGA,0.986
19,GGTGCCAGAC,1.08
20,GGTGCCCATT,0.973
21,GGTGCCTCGT,1.04
22,GGTGCGAATT,1
23,GGTGCGGGAA,1.01
24,GGTGCGTATT,0.939
25,GGTGCGTGTT,1.07
